# Experimental data as given in the supplement of paper PMC3724861.
# Some of the results follow.
# Test system: T1, Caupolican (Caup) homeodomain DNA-binding domain
# T1 sequence: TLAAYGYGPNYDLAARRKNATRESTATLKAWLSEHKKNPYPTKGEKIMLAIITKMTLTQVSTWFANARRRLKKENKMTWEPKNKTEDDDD
# Assay: PBM E-score (8-mer, recovered from the published 9-mer minima) (E-score (dimensionless, -0.5 to 0.5)); Drosophila protein; higher = stronger relative binding preference, active = 0.31 or more
# Experimental: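 Protein binding microarray (PBM): in vitro transcribed/translated Caupolican (Caup) homeodomain DNA-binding domain (residues 214-303) applied at 100 nM to a universal 8-mer PBM array (Agilent AMADID 015681). The 8-mer enrichment score (E-score, range -0.5 to 0.5) was computed, and each 9-mer score is the minimum E-score of its two constituent 8-mers. The E-score is the same for a 9-mer and its reverse complement; 0.31 is the stated binding threshold.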
row,Sequence,PBM E-score
1,GGTGAGAA,inactive: -0.068
2,CAAGGCGA,inactive: -0.0101
3,CACTTGCA,inactive: 0.113
4,ACTCGATC,inactive: -0.0238
5,ACTGTGAA,inactive: 0.0229
6,ACGGTCAG,inactive: -0.0409
7,ACTCTATG,inactive: -0.0241
8,TGAGGCAA,inactive: -0.0847
9,CCCGTAAC,inactive: 0.021
10,AGGAAACG,inactive: -0.0134
11,TCCGCGGA,≥ -0.111
12,CACCCTTC,inactive: -0.0703
13,TTACATAA,active: 0.339
14,CAACAAAA,inactive: 0.232
15,GACTTAGA,inactive: -0.0595
16,ACATTGAG,inactive: 0.134
17,CTCCGGAG,inactive: -0.203
18,ATACAAGG,inactive: 0.283
19,GCATCTCA,inactive: 0.0106
20,CAAACAAG,inactive: 0.2
21,CACAACTC,inactive: 0.0177
22,AAACGCCC,inactive: -0.126
23,CTTTATCA,inactive: 0.0949
24,GCAGCGCA,inactive: -0.191
25,AGTTTACC,inactive: 0.0187

row,Sequence,PBM E-score
1,ACAGCATA,inactive: 0.154
2,GACGACAC,inactive: 0.191
3,AACAGCCG,inactive: 0.00479
4,CAGATGAA,≥ 0.139
5,ACCGGCAA,inactive: -0.0801
6,GCCGACGC,inactive: -0.22
7,ACTCTCTA,inactive: 0.0135
8,AATGTCAG,inactive: 0.197
9,CAAAGATC,inactive: -0.00782
10,ACTCTCCT,inactive: -0.0347
11,AGCCAGCG,inactive: -0.15
12,CGGAGTGA,inactive: -0.0315
13,AGATTCAG,inactive: 0.00643
14,CAAAGGGG,inactive: -0.109
15,CCTAGGCC,inactive: -0.185
16,AGGAACAG,inactive: 0.0859
17,CTACAGAC,inactive: 0.0295
18,ATTCTAGG,≥ 0.108
19,GCAGCGAA,inactive: -0.0191
20,CATTGGCG,inactive: -0.0798
21,ATAGTGAC,inactive: 0.0921
22,CACCCAGA,inactive: -0.00339
23,CCTTGTTC,inactive: 0.24
24,ATCCTAAT,inactive: 0.0673
25,ATCATCTA,inactive: 0.00426

row,Sequence,PBM E-score
1,ACCCAGCA,inactive: -0.0769
2,CAAGAACG,inactive: -0.00317
3,ATGGTTGC,inactive: -0.0634
4,ATGACGTA,≥ 0.15
5,ATCAAATA,inactive: 0.125
6,ATGTTTTC,active: 0.33
7,GATGTGCA,inactive: 0.102
8,CGAGACAA,inactive: 0.0948
9,AGCTAATG,inactive: 0.0599
10,CCATTCAA,inactive: 0.0195
11,ATCGTAAT,≥ 0.193
12,ATACCTGC,inactive: 0.053
13,CGCTACAC,inactive: 0.104
14,ACTTAACA,inactive: 0.22
15,ACAAAGCA,inactive: 0.17
16,AGCTCACG,inactive: -0.0814
17,GAGTGAAC,inactive: -0.00908
18,TATCGCAA,inactive: 0.0789
19,CAGAAGCC,inactive: -0.192
20,CGCCGCGC,inactive: -0.237
21,AGGGACGG,inactive: -0.28
22,CACTATAC,inactive: 0.121
23,GGAGACAC,inactive: 0.0998
24,AATGTGTA,active: 0.311
25,CACCAACG,inactive: 0.0127

row,Sequence,PBM E-score
1,AAAGCTAC,inactive: -0.00022
2,CTCTTACC,inactive: 0.0184
3,GCATTCGA,inactive: 0.0105
4,CCCCCGCG,inactive: -0.26
5,CAGCAAAA,inactive: 0.0451
6,TCGTCTCA,≥ -0.009
7,GGGTAAAA,inactive: 0.0208
8,CCGTAAAA,inactive: -0.0169
9,AAATTTCG,inactive: 0.0516
10,AGCAGCCT,inactive: -0.0531
11,ACACGGGG,inactive: 0.0798
12,AGGAAACC,inactive: -0.0942
13,AGTCAGTG,inactive: 0.0423
14,CTTGCCCA,inactive: -0.155
15,GACGGAAA,inactive: -0.0259
16,AACACTGT,inactive: 0.211
17,AATGAGAG,inactive: -0.111
18,ATACTACA,active: 0.364
19,AACTTAAA,inactive: 0.147
20,CACCAGCG,inactive: -0.101
21,CCGCGGAC,inactive: -0.13
22,ATTGGCCC,inactive: -0.2
23,GGACGACA,inactive: 0.205
24,GGTAGTGA,inactive: 0.0412
25,CGCAGAAA,inactive: -0.0964

row,Sequence,PBM E-score
1,CAGTAAAG,inactive: 0.00549
2,AACGTTTC,inactive: 0.0161
3,CCATAAGA,inactive: -0.046
4,GAACTAGC,inactive: 0.0335
5,CTCATGAG,inactive: -0.0458
6,GCTTCAGA,inactive: -0.113
7,ATCCAAAA,inactive: 0.0765
8,ATTAGCTG,inactive: 0.0175
9,AAACATGC,active: 0.342
10,AGTAACGC,inactive: 0.00518
11,GGTTTACA,inactive: 0.268
12,AAGGCCTG,inactive: -0.168
13,ACCATACG,inactive: 0.0651
14,AGCGAATG,inactive: -0.0422
15,AGCGGGGC,inactive: -0.27
16,GATGAAAC,inactive: 0.0712
17,CGGGCGCA,inactive: -0.267
18,TAATTACA,active: 0.335
19,AAAGTTTA,inactive: 0.0868
20,ATCGAAAA,inactive: 0.0577
21,GCGTCACC,inactive: -0.21
22,CAGAAACG,inactive: -0.00093
23,AACCTTCC,inactive: -0.127
24,CTGAAATA,inactive: 0.0494
25,CTGCGGGC,inactive: -0.247

row,Sequence,PBM E-score
1,CTGCGGCC,inactive: -0.243
2,GTTCGCAA,inactive: 0.106
3,ACTATAGT,inactive: 0.0774
4,AATATCAG,inactive: 0.161
5,AAAGTACC,inactive: 0.1
6,TATAGAAA,inactive: 0.118
7,CCTCCGCG,inactive: -0.218
8,AGACCGTC,inactive: -0.133
9,ACATAGGC,inactive: 0.197
10,ATAGCCAC,inactive: -0.0729
11,CTTCTACC,inactive: -0.185
12,CCGATGTA,inactive: 0.159
13,CAGTCGTA,inactive: -0.00013
14,GTCTCGCA,inactive: -0.0552
15,GAAGTACC,inactive: 0.0526
16,GAAATAGA,inactive: 0.1
17,GGCCCCCC,inactive: -0.448
18,ACAACACC,inactive: 0.301
19,AATCGGGT,inactive: 0.00849
20,CATTAAAG,inactive: 0.131
21,CGCTAGAC,inactive: -0.0864
22,CGCCGGCG,inactive: -0.219
23,CTTAAAAC,inactive: 0.0539
24,GGGGAAGA,inactive: -0.15
25,ATCGCTAG,inactive: -0.00841

row,Sequence,PBM E-score
1,TGCGAACA,inactive: 0.217
2,AATGACGG,inactive: 0.00505
3,CACAGGGG,inactive: -0.17
4,CACTGTGC,inactive: -0.0261
5,AAAATGAG,inactive: 0.0045
6,CTGGTAAC,inactive: 0.115
7,CCTGTCGA,inactive: 0.0635
8,AGTTGCCA,inactive: -0.152
9,CTTCCCTA,inactive: -0.19
10,ACTCCAAA,inactive: -0.00632
11,ACCATCCC,inactive: -0.0727
12,GGGACCCC,inactive: -0.285
13,AAGGAGGT,inactive: -0.099
14,CTGCTAAC,inactive: -0.0204
15,ACCACACC,inactive: -0.116
16,CACCTTCA,inactive: -0.029
17,ACCCGTGA,inactive: -0.0895
18,AGCCGCTG,inactive: -0.187
19,AGGTCGGC,inactive: -0.121
20,AGATCCCT,inactive: -0.128
21,AACTCTAG,≥ 0.0585
22,AGCGCCAT,inactive: -0.171
23,ACGGAGTG,inactive: -0.0735
24,CAAGTACC,inactive: 0.159
25,ATATGCGG,inactive: 0.0383

row,Sequence,PBM E-score
1,AGCCGCTC,inactive: -0.154
2,CTCCTCGC,inactive: -0.182
3,AAATCGGT,inactive: -0.00424
4,TAGGAGAA,≥ 0.0625
5,ACTCGAGC,inactive: -0.0161
6,CCCTTCAA,inactive: -0.0942
7,AAACTCGT,inactive: 0.0614
8,CCCCTGAC,inactive: -0.0543
9,GATTCTCC,inactive: -0.19
10,ATGACCGG,inactive: -0.05
11,TATGTGGA,inactive: 0.0929
12,AGTATTTC,inactive: 0.082
13,CACTCAGA,inactive: -0.0336
14,AGCAGGAC,inactive: 0.0602
15,GTGGATTA,inactive: 0.0344
16,GTGGCCGA,inactive: -0.15
17,CAGTTAGC,inactive: -0.126
18,AAACTGAG,inactive: -0.0599
19,AACGATCA,inactive: 0.0876
20,CCCGTACC,inactive: -0.121
21,ACTAGGAT,inactive: 0.133
22,AACAGACT,≥ 0.172
23,AGCTAGGA,inactive: -0.0268
24,AAGGGGAA,inactive: -0.113
25,GCACCCAC,inactive: -0.108

row,Sequence,PBM E-score
1,ATAAGCGG,inactive: -0.0674
2,AATCTGGG,inactive: -0.153
3,CCCCGAAC,inactive: -0.175
4,CAGTGGTA,inactive: 0.0762
5,ACAGGGGC,inactive: -0.0393
6,AAGACAGT,inactive: 0.0277
7,AGTAGAAG,inactive: -0.055
8,AAGATACC,inactive: 0.0465
9,AGACGTAA,inactive: 0.037
10,AACCGAAG,inactive: -0.0262
11,CTCCTGAA,inactive: -0.166
12,CGGCTGTA,inactive: -0.0275
13,GCCCTGCA,inactive: -0.173
14,GCTAGACA,inactive: 0.0882
15,CCTGCGAG,inactive: -0.197
16,GGATAGAA,inactive: -0.0396
17,CACTCTCG,inactive: -0.0359
18,CATTTTCG,inactive: -0.00917
19,AAGGGCGT,≥ -0.0867
20,AGGTAACG,inactive: 0.0252
21,ATTTTAAG,inactive: 0.00065
22,ACCGAGAT,≥ -0.0191
23,TGATTAAA,inactive: 0.125
24,ACAGGCTA,inactive: 0.0551
25,CATCGCCC,inactive: -0.0497
